# Measured values from PubChem BioAssay AID624296 (National Center for Advancing Translational Sciences (NCATS), 2012).
# Out of some 350,000 compounds screened, about 9,900 (2.8%) were called active. The inconclusive results got no clear call from the source; some entries with a clear call stand among them for comparison. Calls come from the whole dose curve; as a rule, active = well fitted activation curve with a large enough effect; inconclusive = small, poorly fitted or top-dose-only effect; inactive = no such curve, though single readings can be large or run the other way. Potencies of inconclusive entries are left out as doubtful fits.
# Experiment: A quantitative high throughput screen for small molecules that induce DNA re-replication in MCF 10a normal breast cells. For activity, positive = re-replication: % of control where 0% means no effect. Note: nearly all actives have a fitted effect of over 50% in size.
# Details: MCF 10A DNA re-replication, Hoechst nuclear intensity, 48 h; activity, positive = re-replication: at 46.1 µM (top of the series)
# Potency is the fitted concentration of half-maximal effect; tags give direction and shape of the fitted curve.
SMILES,Potency,"activity, positive = re-replication"
Cc1ccc(NC(=O)C(=O)NCCc2c[nH]c3ccccc23)cc1C,"inconclusive [activator, partial curve, poor fit]",
COc1ccc(CCNC(=O)COc2ccc(S(=O)(=O)NC3CCCCC3)cc2Cl)cc1,"inconclusive [activator, partial curve, poor fit]",
O=C(OCC(=O)N1CCCCCC1)c1ccc([N+](=O)[O-])cc1Cl,active: 0.82 µM,
COc1cc(CN2CCC(C)CC2)ccc1OCc1ccccc1,"inconclusive [activator, partial curve]",
CC(C)C[C@H](NC(=O)c1nc[nH]c1C(=O)NCCCCCN)C(=O)OCc1ccccc1,"inconclusive [activator, partial curve, poor fit]",
O=C(CCOc1ccccc1)Nc1ccnn1C1CCN(CCc2ccccc2)CC1,,inactive: 5.41%
O=S(=O)(NCc1ccc(Cl)cc1)c1cccc2cccnc12,"inconclusive [activator, partial curve, poor fit]",
COc1ccc(N(Cc2cc3ccccc3[nH]c2=O)S(C)(=O)=O)cc1,,inactive: -19.1%
COc1ccc(C2C(C#N)=C(N)Oc3cc(O)ccc32)cc1C (centres undefined),"inconclusive [activator, single point]",
CC(C(=O)NCc1ccccc1Cl)N1C(=O)c2ccccc2C1=O (centres undefined),,inactive: 4.5%
Cc1ccc(C2=CC(c3ccc(N(C)C)cc3)n3nnnc3N2)cc1 (centres undefined),active: 23.1 µM,
Cc1ccc2nc(-c3ccncc3)cc(C(=O)Nc3ccc4c(c3)OCCO4)c2c1,"inconclusive [activator, single point]",
CN1CCN(Cc2nc3c(c(=O)n(C)c(=O)n3C)n2CCCc2ccccc2)CC1,,inactive: 5.16%
COc1cnc(-c2ccccc2)nc1Oc1cccc(C)c1C,"inconclusive [activator, single point]",
CN(Cc1ccccc1)Cc1nc2c(c(=O)n(C)c(=O)n2C)n1Cc1ccc(F)cc1,,inactive: 10.3%
O=C(COc1cccc(-n2cnnn2)c1)NCCC1=CCCCC1,,inactive: 8.98%
CCOC(=O)c1[nH]c(C)c(C(=O)OCC(=O)NC(C)c2ccc(F)cc2)c1C (centres undefined),"inconclusive [activator, full curve]",
CC(C)CN(C(=O)C1CC1)C1CCS(=O)(=O)C1 (centres undefined),"inconclusive [activator, partial curve, poor fit]",
COCCCNC(NC(=O)c1ccc(Cl)cc1)C(Cl)(Cl)Cl (centres undefined),,inactive: -3.56%
Cc1cc(C)n(CCNS(=O)(=O)c2ccc(C)c(C)c2)n1,,inactive: -12.5%
CC1(C)Cc2c(c(N3CCCCC3)[nH]c(=S)c2C#N)CS1,"inconclusive [activator, partial curve, poor fit]",
COC(=O)N1C(=O)[C@@](c2ccccc2)(C2CCCC2)N1C(=O)OC,"inconclusive [activator, partial curve, poor fit]",
O=C(Nc1cc(C(F)(F)F)ccc1Cl)c1ccc(NC(=O)C(F)(F)F)cc1,,inactive: -2.57%
Cc1cccc2cc3c(NC(=O)CC(C)C)nn(C)c3nc12,"inconclusive [activator, partial curve]",
Cc1ccc(CN=C(Nc2ccccc2)NC2CCCCC2)cc1,,inactive: 14.5%

SMILES,Potency,"activity, positive = re-replication"
COc1ccccc1C(=O)NCCC(=O)Nc1cccc(S(=O)(=O)N2CCCC2)c1,,inactive: 11.3%
CCCCn1c(SCC(=O)Nc2cc(C(F)(F)F)ccc2Cl)nnc1C(CC)N(C)C (centres undefined),"inconclusive [activator, partial curve, poor fit]",
CC1=C([N+](=O)[O-])C(c2ccccc2)C2=C(N1)c1ccccc1C2=O (centres undefined),"inconclusive [activator, full curve, poor fit]",
O=C(O)Cc1ccc(C(=O)c2ccc(Cl)cc2)s1,"inconclusive [activator, single point]",
CN(C)c1nc(C(=O)NN)nc(N(C)C)n1,active: 3.66 µM,
Clc1ccc(Oc2ncnc3oc(-c4ccccc4)cc23)cc1,active: 5.8 µM,
O=C(CNCCc1ccc(Cl)cc1)Nc1ccc(C(=O)N2CCCCC2)cc1,,inactive: 6.97%
CN(C(=O)CCN1C(=O)/C(=C/c2ccccc2)SC1=S)C1CCS(=O)(=O)C1 (centres undefined),"inconclusive [activator, partial curve, poor fit]",
CC(O/N=C/c1ccccc1OC(F)F)C(=O)Nc1cccc(S(=O)(=O)N2CCOCC2)c1 (centres undefined),,inactive: -27.7%
COc1cccc(Oc2c(C)oc3c(CN4CCOCC4)c(O)ccc3c2=O)c1,,inactive: 2.53%
CN(C)C(=O)c1ccc(NC(=O)c2cncc(Br)c2)cc1,,inactive: 3.9%
CCCCN(C(=O)c1ccc(Br)o1)C1CCS(=O)(=O)C1 (centres undefined),,inactive: 4.27%
COc1ccc(CCN(C)C(=O)C(CCSC)NC(=O)c2ccco2)cc1OC (centres undefined),"inconclusive [activator, full curve, poor fit]",
O=C(Nc1ccc(CN2CCOCC2)cc1)c1ccc(-c2ccc(Cl)cc2Cl)o1,"inconclusive [activator, single point]",
O=C(NCCC1CCCCN1S(=O)(=O)c1ccccc1)C(=O)Nc1ccc(F)cc1 (centres undefined),"inconclusive [activator, single point]",
COc1ccc(-c2cc(C)nc(SCc3cccc(C(=O)O)c3)n2)cc1,"inconclusive [activator, single point]",
CC(C)c1ccc2nc3sc(C(=O)N4CCc5ccccc5C4)c(N)c3cc2c1,"inconclusive [activator, single point]",
COc1ccccc1-n1cnc2cc(NCc3ccccc3O)ccc21,"inconclusive [activator, single point]",
CCN(c1ccc(NC(=O)CCc2nc3sc4c(c3c(=O)[nH]2)CCCC4)cc1)C(C)C,"inconclusive [activator, single point]",
CN(C)CC1CCCCC1OC(=O)/C=C/c1ccc(Cl)cc1Cl (centres undefined),,inactive: 8.17%
c1ccc2c3c([nH]c2c1)C(C1CCCCC1)N(Cc1ncc[nH]1)CC3 (centres undefined),,inactive: -0.37%
COc1ccc(-c2noc(=O)[nH]2)cc1,"inconclusive [activator, partial curve, poor fit]",
COc1ccc(/C=c2\s/c(=C/C(=O)c3ccc(C)cc3)[nH]c2=O)c(OC)c1,active: 4.11 µM,
CC(=O)Cn1ncc(N(C)Cc2ccccc2)c(Cl)c1=O,,inactive: 1.32%
Cn1nc(Oc2ncc(C(F)(F)F)cc2Cl)cc1C(F)(F)F,,inactive: 0.322%

SMILES,Potency,"activity, positive = re-replication"
Cc1ccccc1NC(=O)CSc1nc(N)c2c3c(sc2n1)CSC(C)(C)C3,"inconclusive [activator, single point]",
COc1ccc(N2CCc3c(C)nc4c(OC)cc(OC)cc4c32)c(OC)c1,active: 25.9 µM,
Cc1ccc(-n2c(-c3nn(C)cc3Cl)n[nH]c2=S)cc1,,inactive: 7.22%
Cc1ccc([N+](=O)[O-])c(OCCN2CCc3ccccc3C2)c1,"inconclusive [activator, full curve, poor fit]",
COc1ccc(N2CCCC2=N)c(OC)c1,,inactive: 0.151%
COCCN(C(=O)CCC(=O)Nc1nccs1)C(C(=O)NC(C)(C)C)c1ccc(Cl)cc1 (centres undefined),"inconclusive [activator, single point]",
CSc1ccccc1NC(=O)c1cc(C2CC2)on1,"inconclusive [activator, full curve, poor fit]",
CN1CCN(c2ccc(S(=O)(=O)Nc3ccccc3)cc2[N+](=O)[O-])CC1,"inconclusive [activator, full curve, poor fit]",
O=C(CNC(=O)c1ccc(Cl)cc1Cl)OCC(=O)N1CCCC1=O,,inactive: -3.57%
Cc1ccc(SCCNC(=O)c2ccc([N+](=O)[O-])c(C)c2)cc1,,inactive: 4.85%
Cn1c(COc2ccc(Br)cc2)nnc1SC1CCc2ccccc2C1=O (centres undefined),"inconclusive [activator, partial curve, poor fit]",
Cc1occc1C(=O)NNC(=S)Nc1cccc([N+](=O)[O-])c1,"inconclusive [activator, single point]",
CC(C)CN1C(=O)N(c2ccc(Cl)cc2)C(C)(O)CC1(C)C (centres undefined),"inconclusive [activator, single point]",
COc1ccc(Br)cc1/C=N/NC(=O)c1ccc(COc2ccc3c(c2)CCC3)o1,active: 11.6 µM,
COc1cccc(-c2coc3c(C)c4oc(=O)c(CCC(=O)O)c(C)c4cc23)c1,,inactive: -1.36%
O=C(Nc1ccccc1Br)C1CC(=O)N(c2ccc3c4c(cccc24)CC3)C1 (centres undefined),active: 20.6 µM,
N#CC(=C1C=CC(=NO)C(Cl)=C1)c1ccc(Cl)cc1,"inconclusive [activator, partial curve, poor fit]",
CCNC(=S)Nc1cc(Cl)ccc1Oc1ccccc1,,inactive: 4.09%
CCCCCC(O)c1cccc(OCc2ccc3ccccc3n2)c1 (centres undefined),"inconclusive [activator, single point]",
Cc1cc(-c2nnc(CCC(=O)N(C)C(C)c3cccs3)o2)no1 (centres undefined),,inactive: -3.77%
CC(=O)N1CCN(c2ccc(NCc3ccccc3)cc2)CC1,"inconclusive [activator, partial curve, poor fit]",
CN(CC(=O)Nc1ccccc1Cl)CC(=O)Nc1ccccc1[N+](=O)[O-],"inconclusive [activator, partial curve, poor fit]",
CC(C)CC(=O)NNC(=O)c1ccc(Cl)cc1,"inconclusive [activator, full curve, poor fit]",
C[C@H](NC(=O)c1ccc2c(c1)OCO2)c1nnc2ccccn12,,inactive: -2.55%
